# Source: PMC4336329 (PLoS ONE, 2015)
# Screen size: about 310,000 compounds; about 2,200 (0.71%) showed an effect of 50% or more. Effects have a minus sign here. This is one part of the list.
# Target: human ether-à-go-go-related gene (hERG) potassium channel (human, UniProt Q12809)
# Assay: primary screen, population patch clamp on CHO cells stably expressing hERG
# Chain of human ether-à-go-go-related gene (hERG) potassium channel (Q12809 whole entry, looked up): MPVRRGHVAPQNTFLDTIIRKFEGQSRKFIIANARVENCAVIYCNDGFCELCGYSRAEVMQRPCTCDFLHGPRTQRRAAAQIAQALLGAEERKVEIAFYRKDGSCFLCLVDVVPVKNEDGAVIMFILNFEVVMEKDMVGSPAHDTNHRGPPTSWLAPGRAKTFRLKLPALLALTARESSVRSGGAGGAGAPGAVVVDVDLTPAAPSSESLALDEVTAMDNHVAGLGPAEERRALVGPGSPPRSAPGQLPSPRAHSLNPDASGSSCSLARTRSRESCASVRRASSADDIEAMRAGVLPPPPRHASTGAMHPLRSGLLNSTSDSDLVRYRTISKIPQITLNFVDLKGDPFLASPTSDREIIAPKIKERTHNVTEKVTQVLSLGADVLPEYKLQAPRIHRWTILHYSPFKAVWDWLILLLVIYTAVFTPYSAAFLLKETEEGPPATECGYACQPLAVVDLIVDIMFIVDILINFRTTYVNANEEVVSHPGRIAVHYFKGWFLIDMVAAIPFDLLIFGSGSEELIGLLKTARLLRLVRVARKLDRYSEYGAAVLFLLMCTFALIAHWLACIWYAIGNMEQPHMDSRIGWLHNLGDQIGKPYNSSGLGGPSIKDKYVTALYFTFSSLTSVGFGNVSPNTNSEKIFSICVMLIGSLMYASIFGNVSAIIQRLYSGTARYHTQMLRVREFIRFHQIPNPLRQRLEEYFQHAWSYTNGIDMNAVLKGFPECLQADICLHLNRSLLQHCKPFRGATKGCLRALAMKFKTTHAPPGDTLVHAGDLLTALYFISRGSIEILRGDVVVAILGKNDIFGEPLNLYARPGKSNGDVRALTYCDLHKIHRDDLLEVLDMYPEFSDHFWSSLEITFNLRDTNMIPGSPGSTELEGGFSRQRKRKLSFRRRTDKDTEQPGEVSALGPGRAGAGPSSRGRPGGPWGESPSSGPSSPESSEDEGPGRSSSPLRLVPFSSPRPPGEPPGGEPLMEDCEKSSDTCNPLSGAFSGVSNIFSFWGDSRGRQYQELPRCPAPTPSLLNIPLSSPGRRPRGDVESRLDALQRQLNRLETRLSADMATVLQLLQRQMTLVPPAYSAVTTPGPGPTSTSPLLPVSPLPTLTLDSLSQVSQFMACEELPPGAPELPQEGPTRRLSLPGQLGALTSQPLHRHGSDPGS
row,Structure (SMILES),"hERG current change (%, negative = inhibition) at 1uM [%]"
1,CC1(C)SCC2C(=O)N3C(CSC3(C)C)C(=O)N21 (stereo not shown),13.8
2,COc1ccccc1N(CC(O)COc1ccccc1)S(=O)(=O)c1ccccc1 (stereo not shown),11.6
3,Cc1occc1C(=O)N1CCN(S(=O)(=O)c2ccccc2)CC1,13.6
4,CNC(=O)CN(Cc1ccccc1)S(=O)(=O)c1ccccc1,-5.14
5,Cc1cc(OCc2cc(C(=O)N(Cc3nccn3C)C(C)C)no2)cc(C)c1Cl,10
6,O=C(O)c1cccc(CN2C(=O)S/C(=C/c3cccc([N+](=O)[O-])c3)C2=O)c1,9.1
7,C/C(CC(=O)N1CCCC1)=N\NC(=O)c1cc2ccccc2cc1O,10.7
8,COc1ccc(OC)c(C2N(c3ccc(Cl)cc3)C(=O)C3CCCN32)c1 (stereo not shown),14.6
9,O=C(COc1ccc(Cl)cc1)Nc1ccc2oc(=O)ccc2c1,13.1
10,Cc1cnc(C(=O)OCC(=O)Nc2oc(-c3ccccc3)c(-c3ccccc3)c2C#N)cn1,6.32
11,COc1ccc(CN2C(=O)c3cccnc3C2=O)cc1S(=O)(=O)N1CCCC(C)C1 (stereo not shown),13.9
12,Cc1ccnc(N2CCCC(C(=O)Nc3ccc(C)c(C)c3)C2)n1 (stereo not shown),9.16
13,COc1cc(Cl)c(C)cc1NC(=O)CSc1ccc(C)cc1,9.5
14,O=C(NCCCN1CCOCC1)c1cc(-c2ccc(F)cc2)nc2ccccc12,5.37
15,Cc1cc(N2C(=O)C(=O)/C(=C(/O)c3ccc(F)cc3)C2c2ccc(F)cc2)no1 (stereo not shown),9.47
16,CC1=Nc2cc(C(=O)O)ccc2Sc2c(C)ccc(C)c21,-2.93
17,CCOC(=O)C1(Cc2ccccc2C)CCCN(S(=O)(=O)CC)C1 (stereo not shown),21
18,CCN(CC(=O)NC(C)C)Cc1nc2c(Br)cc(Br)cc2c(=O)[nH]1,11.9
19,O=C(NCc1cccs1)C1CCN(S(=O)(=O)c2ccccc2F)CC1,11
20,Cc1cccc(C)c1NC(=S)N1CCCN(C)CC1,11.9
21,COCCNC(=O)/C(C#N)=C/c1cc(C)n(-c2ccc(C)cc2)c1C,8.12
22,COc1ccc(C)c2sc(NC(=O)C3CC3)nc12,7.32

row,Structure (SMILES),"hERG current change (%, negative = inhibition) at 1uM [%]"
1,CCOC(=O)c1c(NC(=O)CN2CCN(C(=O)c3ccco3)CC2)sc(C)c1C,7.11
2,Cc1cc(N2C(=O)C3CCCN3C2c2ccc(Cl)c(Cl)c2)no1 (stereo not shown),13.6
3,CC(C)(C)C1CCC(=NNC(=O)C(=O)NCc2ccco2)CC1 (stereo not shown),-0.0958
4,O=C(COc1ccc(Cl)cc1[N+](=O)[O-])NC1CCCCC1,14.4
5,Cc1cc(NC(=O)c2cccs2)ncc1NC(=O)C(C)C,8.65
6,Cc1nc2ccc(NS(=O)(=O)c3ccc(F)c(F)c3)cc2s1,7.11
7,COc1cc(C2C(C#N)=C(N)N(c3cccnc3)C3=C2C(=O)CCC3)ccc1O (stereo not shown),-4.41
8,COc1cccc(NS(=O)(=O)c2ccc(-c3coc(C)n3)cc2)c1,16.8
9,O=C(COc1ccc(S(=O)(=O)N2CCOCC2)cc1)NCc1ccccn1,8.36
10,CCOC(=O)c1cnc2c(c(C3CC3)nn2C)c1N1CCOCC1,15.2
11,N#Cc1cc(C(=O)c2cc(Cl)ccc2O)cn(CC2CCCO2)c1=O (stereo not shown),6.98
12,Cc1ccc(N(C(=O)CNC(=O)c2ccco2)C(C(=O)NC2CCCC2)c2ccncc2)cc1 (stereo not shown),15.9
13,CSCC[C@@H](Nc1nc(-c2ccccc2)nc2c1oc1ccccc12)C(=O)O.Cl,-0.143
14,CCCCn1c(N)c(N(CC(C)C)C(=O)c2oc3c(Cl)cccc3c2C)c(=O)[nH]c1=O,7.34
15,CNc1nnc(CSc2nc3ccccc3s2)s1,5.44
16,O=C(O)C(=O)O.OC(CNc1ccccc1)Cn1ccc2ccccc21 (stereo not shown),2.97
17,COC(=O)C(/C=N/OCc1ccc([N+](=O)[O-])cc1)NC(=O)c1ccccc1 (stereo not shown),-11.9
18,O=C(CNCc1ccc(Cl)cc1)Nc1ccc(C(=O)N2CCCCC2)cc1.O=C(O)C(=O)O,12.9
19,CCCCn1nc(C(=O)N(C)CC(=O)Nc2cccc(F)c2)c2ccccc2c1=O,16
20,O=C(NCC1CCCO1)c1ccc2c(=O)n(Cc3cccc(Br)c3)c(=S)[nH]c2c1 (stereo not shown),11.1
21,CC(C)C(C(=O)Nc1sc2c(c1C#N)CCCCC2)N1C(=O)c2ccccc2C1=O (stereo not shown),3.9
